Laboratory results from PubChem BioAssay AID1345083 (National Center for Advancing Translational Sciences (NCATS), 2018).
Screen size: about 94,000 compounds; about 6,200 (6.6%) were called active. The inconclusive results got no clear call from the source; some entries with a clear call stand among them for comparison. The call rests on the fitted dose curve; in most records, active means well fitted inhibition curve with a large enough effect; inconclusive means small, poorly fitted or top-dose-only effect; inactive means flat fitted curve, though single readings scatter. A potency beside an inconclusive call is a rough fit, not a confirmed value.

assay: Cytotoxic Profiling in HEK 293 Cell Line of Diverse Libraries Using Quantitative High-Throughput Screening; conditions: HEK 293 viability, ATP luminescence (CellTiter-Glo), 48-72 h; series mostly up to 115 µM; further: nearly all actives have a fitted effect of over 60% in size
Summary of the method: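 Cells seeded first (HEK 293, 250 cells/well), then compound added by pintool. Incubation ran 48 or 72 hr at 37 degree Celsius. CellTiter-Glo was added and luminescence imaged after 10 min at room temperature.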
Potency means the concentration at half of the fitted maximal effect; tags describe the fitted curve by direction and shape.

SMILES | Potency
CC(C)NC(=O)c1cn2cc(-c3cccnc3)sc2n1 | inconclusive: 126 µM [inhibitor, single point]
CC1(COc2ccccc2)COc2ccc(C(=O)N3CCN(c4ccccn4)CC3)cc2N1 (configuration not stated) | inconclusive: 56.2 µM [inhibitor, partial curve, poor fit]
CCC(C)(C)C(=O)NCCc1noc(-c2ccccc2)n1 | inconclusive: 79.4 µM [inhibitor, single point]
CC(=O)NCCNC(=O)c1ccc(-c2cccc(C(F)(F)F)c2)cc1 | inconclusive: 56.2 µM [inhibitor, partial curve, poor fit]
COc1cccc(N2C(=O)NC(=NC3CCCCC3)C23CCCN(Cc2ccccc2)C3)c1 (configuration not stated) | inconclusive: 50.1 µM [inhibitor, partial curve, poor fit]
Clc1cc(N2CCCCC2)n2nccc2n1 | inactive
CC(C)c1nccn1CCCNC(=O)c1ccc(-c2cccc(F)c2)nc1 | inconclusive: 8.91 µM [inhibitor, full curve, poor fit]
CCOC(=O)[C@H]1C[C@]2(CCCCN(C)C2=O)N(C(=O)c2cc(C)oc2C)[C@H]1c1ccco1 | inconclusive: 89.1 µM [inhibitor, partial curve, poor fit]
CCNC(=O)NC[C@H]1Cn2c(-c3cccc(Cl)c3)cnc2CO1 | inactive
COc1cccc(CCC(=O)N2CCC3(CC2)N=C(c2ccc(C)cc2)NO3)c1 | inconclusive: 79.4 µM [inhibitor, single point]
O=C(C1CCCC1)N1Cc2ccccc2CC2(CCN(Cc3cccnc3)C2)C1 (configuration not stated) | inconclusive: 25.1 µM [inhibitor, partial curve, poor fit]
O=C(C1CCC1)N1CCC(N2CC(OCC3CC3)C23CCCCC3)CC1 (configuration not stated) | inactive
Cc1ccccc1NC(=O)N1CCC(CCNC(=O)c2cccs2)CC1 | inconclusive: 89.1 µM [inhibitor, single point]
COc1ccc(Nc2ccnc(N3CCC(C(=O)NCc4cccs4)CC3)n2)cc1 | inconclusive: 44.7 µM [inhibitor, partial curve, poor fit]
COc1ccc(NC(=O)[C@@H]2C[C@H](c3ccc(F)cc3)N(Cc3csc(C)n3)C2)cc1OC | inconclusive: 79.4 µM [inhibitor, partial curve, poor fit]
COCCOC1CCN(C(=O)c2[nH]nc3c2COc2ccccc2-3)CC1 | inconclusive: 79.4 µM [inhibitor, partial curve, poor fit]
COc1cccc(CNC(=O)c2cn3cc(-c4ccccc4)sc3n2)c1 | inconclusive: 31.6 µM [inhibitor, full curve]
